Measurements published in PMC12136788.
The other results are listed elsewhere or left out.

B1: 135693221_135693341_2099_CDS_ENSMUSG00000002748_ENSMUST00000002825|mouse|control|control (ssRNA)
RNA: GGGAGUUCUACAGUCCGACGAUCGAGGUUUCUGCCACCUAACUCCUGGUCCUCAAAUCGCUUCUGCUUUUCUAACCUCUCCAGCAUUUCUCUCUCUCUCCGUUCUUUGGCUUUUUCCCGCAACCUCUCCUUUAGCUCCUGUCGCAACAGAGGAUUGAGCAUCA
B2: chr22:38884116:38884117:-_ENSG00000100201_ENST00000396821|hu_mus|motif|central (ssRNA)
RNA: GGGAGUUCUACAGUCCGACGAUCAUAAUCCUCUGAGCUGUUUGGAUAAUCGUAGUUGAUGACAAACUUGACAUCUUCCACAUCGGGCCCACGGGAGGCUACAUCCGUGGCAAUGAGGAUAGGAGCCUUUCCAGAUCGGAACUCCAACAGAGGAUUGAGCAUCA
B3: 32562287_32562407_2709_CDS_ENSG00000100852_ENST00000539826|human|control|control (ssRNA)
RNA: GGGAGUUCUACAGUCCGACGAUCUUUUCUUACUCCAAUUGAAGAGUGGUAUGAUAAUAUUGUGAUCUGUAUUCGCCUCCUUUUUUCACCAAUGAUUUUAUCAAGCAUUAGGGAAUUAUUCUGUCCAGCUUGAGCAGCACUGCACAACAGAGGAUUGAGCAUCA
B4: chr14:76904430:76904431:+_ENSMUSG00000022010_ENSMUST00000022587|mus_mus|mus_mus_mus_hu_True|1_38 (ssRNA)
RNA: GGGAGUUCUACAGUCCGACGAUCUGCAGCCAAAAACACCCUCGUGGAAAAAAAGAGGGAACACCAGCAGCCUUGUAUAAGCUAGAUAAAAUCUUCUAGCUGUCUGCAGCCCAGGGAGAAACAGAAAACGGCAGCCCUCGAGUGCAACAGAGGAUUGAGCAUCA
B5: chr7:150251850:150251851:+_ENSMUSG00000037706_ENSMUST00000037941|mus_mus|FALSE|FALSE (ssRNA)
RNA: GGGAGUUCUACAGUCCGACGAUCGAAGCCCCAGAUGCCUGCAGCCACCUCACAGGCAAACAGGAUCACAAGGCAGGUGAAGAACGUCCCCAGCAGACACUGGGACUCCUGGAUGGCCCCAUAGCACCCCAGGAAGCCUACAAACAACAGAGGAUUGAGCAUCA
B6: 137538005_137538125_1635_3pUTR_ENSMUSG00000030850_ENSMUST00000033139|mouse|control|control (ssRNA)
RNA: GGGAGUUCUACAGUCCGACGAUCGAGCCGAGAAGCAGGUGGGACUGUGGCAAGAGAUGCCAGGCUGGCGCUGGGCUGAGGUGCAGGCCUUCAGUGUCUGAACAGCAGCAUCCUCUCCGAGCACUUCUGUCCUACGAGGUUUGCCAACAGAGGAUUGAGCAUCA
B7: chr3:133126781:133126782:-_ENSMUSG00000040943_ENSMUST00000098603|mus_mus|motif|central (ssRNA)
RNA: GGGAGUUCUACAGUCCGACGAUCCAGUAUUUAUAACCACCCUCAGAUUGUAUAAACAAAGCCAAAAUCUCAGGAAGUAAGCGGCAUUAAAAAAUAAAGCAUAGAAAAAUGCACACAGAAGUUCAUUAUCUUAGUGUCAAACUGCAACAGAGGAUUGAGCAUCA
B8: chr1:115268999:115269000:-_ENSG00000009307_ENST00000339438|hu_hu|motif|central (ssRNA)
RNA: GGGAGUUCUACAGUCCGACGAUCUAAAAGUCGCACACAAGUUGCAACCUGCUGUCCAGGCCUCUGUUUGUCACUAAUACGGAAUUCAACCUUAUCUCCUAUUUGAGGAGAAGUAGAUCCUUCCACAUCCUUGGCUUGAAAAGCCAACAGAGGAUUGAGCAUCA
B9: chr11:29608385:29608386:+_ENSMUSG00000020458_ENSMUST00000102843|mus_hu|FALSE|FALSE (ssRNA)
RNA: GGGAGUUCUACAGUCCGACGAUCCCUGGCUAAUUUAGAAAAUGAAUCAGUUUUAGAACUGAUCAAUGUAGGGAACUCAUCUAUAAUUUCAAUUGGAGAUGAAUCUGAAAACGUUUCAGUUUCUCUUAUCUGUGCUUCCUUAGACAACAGAGGAUUGAGCAUCA
B10: chr3:179287964:179287965:+_ENSG00000136518_ENST00000429709|hu_hu|hu_hu_hu_mus_True|8_38 (ssRNA)
RNA: GGGAGUUCUACAGUCCGACGAUCCUUGAGUGGUGAGAUGGCCUCCAUGUUCUCCCUGGGCACGCGGAGGGCAUUGGUGUCUAUGUAGUAGGUGGGCCCGCCUUGUUUGCCUUUGUCACCAUCAAUCUCCAUUAAUGUACUUCCCAACAGAGGAUUGAGCAUCA
B11: 106621276_106621396_1018_CDS_ENSMUSG00000040661_ENSMUST00000046502|mouse|control|control (ssRNA)
RNA: GGGAGUUCUACAGUCCGACGAUCGGCCAGGAAGACAUUCUCCUCCUCUGGAGGGUGAUUCAGGUUGACAAGGACCCGCCCGAGAGCAUCAUGCUGGUUUAAGGCGUCAUUCACAUGGGUGCCACCCUUCUCCUCUUCCUCGUCCAACAGAGGAUUGAGCAUCA
B12: chr2:32654292:32654293:+_ENSG00000115760_ENST00000421745|hu_hu|FALSE|FALSE (ssRNA)
RNA: GGGAGUUCUACAGUCCGACGAUCUAAAGGUUUGGAACCUUCUGAAGAUGGUUCUAUUCCUUUAGAAAGAGAUCCAUCCACUAGUAUAUCAGCUUCAUCAAUAUCAUCACAGGUUCCUCCAAUUUGGAGAAAAUGAAGCUCACCCAACAGAGGAUUGAGCAUCA
B13: chr12:105536279:105536280:+_ENSG00000136051_ENST00000332180|hu_mus|hu_hu_hu_mus_True|1_1 (ssRNA)
RNA: GGGAGUUCUACAGUCCGACGAUCAGCACUGAACAUGUAAUGUAAUCUGGCUGCAUCGACAGCAUUUUCAUAUACAUCAUCUAAAUAAAUCGGGAAGACAGCGCGAUGCCAGUAUAAAAAACAGCAGUCACACUGUGUUUGGACCAACAGAGGAUUGAGCAUCA
B14: chr14:89338683:89338684:+_ENSG00000165533_ENST00000346301|hu_hu|hu_hu_hu_mus_False|78_98 (ssRNA)
RNA: GGGAGUUCUACAGUCCGACGAUCGUGGUUGUUGUGGACCAGAGCCAGCCUGAAGCACUGAUGGGCCAAGUUUGUAUCUCCGAUUCCCACAGCUAUGUGCCCCAGGUUGUACCAGACAUCAGCUGCCUCUUCUUCAUUUUCAGCCAACAGAGGAUUGAGCAUCA
B15: chr6:146598974:146598975:+_ENSMUSG00000030291_ENSMUST00000032429|mus_mus|FALSE|FALSE (ssRNA)
RNA: GGGAGUUCUACAGUCCGACGAUCCAGUGGCAAUUUCAGAGUUUUUUACUUAUCAAGAGUGAAAACAGAACACAAUGAAAACUAGCUAAAAAAAAAGGCAACACAGUCAUAGCAUAUGAUAUUCUGUAGCUGUUGGUAGGGCUUCAACAGAGGAUUGAGCAUCA
B16: chr14:66974463:66974464:+_ENSMUSG00000022044_ENSMUST00000074523|mus_hu|mus_mus_mus_hu_False|8_68 (ssRNA)
RNA: GGGAGUUCUACAGUCCGACGAUCUUGUAGGACGACUUAUUCAGGGGAUCGGCCAGGAAGCAGGAGCAGAACAGAGACACCAGCGGGAGCUCCUUCAUCUUCUCUUUGUAGGCAGCAAGGGUCAUGUUGGCUGGAAUUGGUGGCCAACAGAGGAUUGAGCAUCA
B17: 64824021_64825391_2519_3pUTR_ENSG00000184575_ENST00000332707|human|control|control (ssRNA)
RNA: GGGAGUUCUACAGUCCGACGAUCAACAGUCCAGAUAAACUUCGGAACAGCCACAUUGUUUCACAGUCUGUUUGUUGCUGAAAGCUUUACUGGUUCGACUUGCAAAUCCAACAGCAUGGUUAAGACAGUCUGCUAGAGAGGCUUCAACAGAGGAUUGAGCAUCA
B18: chr16:45382771:45382772:-_ENSMUSG00000022661_ENSMUST00000163230|mus_mus|mus_mus_mus_hu_True|68_78 (ssRNA)
RNA: GGGAGUUCUACAGUCCGACGAUCCUGGGUCAUGUUAUAAGACAAAUGGACAGGGAGAGCAUGCUUUUGUAAAGAUGUGAGCUAUUGUCUAAGACUAACAAUAUUUAUCUAGCUAUAAAAAUAAGUUAAAUGAAUAAGUUAAGACAACAGAGGAUUGAGCAUCA
B19: 4493429_4493795_1021_CDS_ENSMUSG00000004961_ENSMUST00000065957|mouse|control|control (ssRNA)
RNA: GGGAGUUCUACAGUCCGACGAUCUGAGAGUCCUCCUACAUCCAUUUUCUUCAGGUUUUUAGCUUCCAAGACAAUGACGGUGAGCUUCCCGGCCGUGGGGACAUAACGGAGAGAGAAGCAGAUGUCCCCCAGUUUCUCUUGCUCCAACAGAGGAUUGAGCAUCA
B20: chr6:349326:349327:+_ENSG00000112679_ENST00000419235|hu_hu|FALSE|FALSE (ssRNA)
RNA: GGGAGUUCUACAGUCCGACGAUCAUGAAUUCUGUGACUUCCAGCAGUAAGAAAGAGUUCACACACACACAAACAUUCAUGUGCACAGACACUUUCACAACAUACACACAUGUACACACUUAGGUGCACAUACCCUCACUCACACAACAGAGGAUUGAGCAUCA
B21: chr1:163112212:163112213:-_ENSG00000143248_ENST00000313961|hu_hu|hu_hu_hu_mus_False|48_58 (ssRNA)
RNA: GGGAGUUCUACAGUCCGACGAUCUUUUAUUAUCAGUAAGAGUGAGUUACAUACUAGGCAAAGUAUUGGAUACAAUAUUCUAAAGAUAAACACAAUUGGUCCAGAAUUUAAAACUUUAUGAGCGAAGUGCUGGCACAGGACUUACAACAGAGGAUUGAGCAUCA
B22: chr4:57314706:57314707:+_ENSG00000128050_ENST00000264221|hu_mus|hu_hu_hu_mus_True|58_78 (ssRNA)
RNA: GGGAGUUCUACAGUCCGACGAUCCAGAAUUUCAAAAAUAGCUUGUGUGGCAUGACUCAUGAUAUCCACUUCAGUCUGGCCUAUAAGAAGGCCAGCAAAACAGAAUUUUGCAGCAAUGAGUUGCUCCUCAGACCACUGUGGAUCCAACAGAGGAUUGAGCAUCA

The binders below were run against T1, UNK ZnF1-3 (human, UniProt Q9C0B0 31-174) (assay: nsRBNS (natural sequence RNA bind-n-seq); RBNS binding buffer (assumed for nsRBNS): 25 mM Tris pH 7.5, 150 mM KCl, 3 mM MgCl2, 0.01% Triton X-100, 500 ug/ml BSA, 20 U/ml SUPERase-In, 4 C; UNK is unkempt and MSI1 is Musashi-1; names of the RNAs are library labels; protein concentration not given here; high values mean tight binding).
T1 sequence: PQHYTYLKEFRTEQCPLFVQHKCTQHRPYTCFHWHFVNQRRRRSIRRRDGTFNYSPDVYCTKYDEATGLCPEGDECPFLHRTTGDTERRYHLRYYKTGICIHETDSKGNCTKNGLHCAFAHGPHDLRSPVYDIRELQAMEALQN

First: B1
Second: B2
The binding signal of the first is lower: 0.425 enrichment R for the first, 0.94 enrichment R for the second.

Going from B3 to B4, the binding signal rises from 0.763 enrichment R to 2.33 enrichment R.

Compared with B5, B6 is lower in binding signal: 1.17 enrichment R for the first, 1.09 enrichment R for the second.

First: B7
Second: B8
The binding signal of the first is higher: 1.35 enrichment R for the first, 0.71 enrichment R for the second.

Going from B9 to B10, the binding signal falls from 1.02 enrichment R to 0.605 enrichment R.

Going from B11 to B12, the binding signal falls from 1.06 enrichment R to 0.545 enrichment R.

First: B13
Second: B14
The binding signal of the first is higher: 1.61 enrichment R for the first, 0.739 enrichment R for the second.

First: B15
Second: B16
The binding signal of the first is lower: 1.6 enrichment R for the first, 2.14 enrichment R for the second.

Compared with B17, B18 is higher in binding signal: 0.944 enrichment R for the first, 0.952 enrichment R for the second.

Compared with B19, B20 is higher in binding signal: 0.696 enrichment R for the first, 0.845 enrichment R for the second.

First: B21
Second: B22
The binding signal of the first is higher: 1.28 enrichment R for the first, 0.963 enrichment R for the second.
